Assay results: US10273244B2, “Substituted hexahydropyrrolo[3,4-b]pyrroles and hexahydrocyclopenta[c]pyrroles as dopamine receptor modulators” (INDIVIOR UK LIMITED, priority 2015, dated 2019)

Target: human dopamine type 3 receptor (CHO-hD3 membranes) (Homo sapiens (Human), UniProt P35462)
Conditions: displacement of 0.3 nM [3H]-Spiperone

Chain of UniProt P35462 (P35462 whole entry): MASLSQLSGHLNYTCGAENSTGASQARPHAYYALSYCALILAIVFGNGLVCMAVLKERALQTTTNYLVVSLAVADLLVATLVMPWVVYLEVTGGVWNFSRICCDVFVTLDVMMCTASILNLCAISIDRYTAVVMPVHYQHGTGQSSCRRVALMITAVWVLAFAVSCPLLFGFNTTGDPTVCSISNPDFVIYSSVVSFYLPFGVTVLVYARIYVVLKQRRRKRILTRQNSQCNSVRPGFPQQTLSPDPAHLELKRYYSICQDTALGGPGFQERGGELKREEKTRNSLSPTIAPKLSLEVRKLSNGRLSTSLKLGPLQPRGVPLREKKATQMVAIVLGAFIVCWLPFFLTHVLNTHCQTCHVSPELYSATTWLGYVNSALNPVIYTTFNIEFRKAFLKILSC

Cn1c(SCCCN2C[C@@H]3CCN(c4ccc(C(F)(F)F)cc4)[C@@H]3C2)nnc1C1CCC(O)CC1 (single isomer, unassigned) [Example 219, 4-[5-({3-[(3aS,6aS or 3aR,6aR)-1-[4-(trifluoromethyl)phenyl]-octahydropyrrolo[2,3-c]pyrrol-5-yl]propyl}sulfanyl)-4-methyl-4H-1,2,4-triazol-3-yl]cyclohexan-1-ol]
D3 pKi: 8.67

Cc1ncoc1-c1nnc(SCCCN2C[C@@H]3CN(c4ccc(C(F)(F)F)cc4)[C@@H]3C2)n1C (single isomer, unassigned) [Example 229, (1R,5S or 1S,5R)-3-(3-{([4-methyl-5-(4-methyl-1,3-oxazol-5-yl)-4H-1,2,4-triazol-3-yl]sulfanyl}propyl)-6-[4-(trifluoromethyl)phenyl]-3,6-diazabicyclo[3.2.0]heptane]
D3 pKi: 7.74

Cc1ncoc1-c1nnc(SCCCN2C[C@H]3CCN(c4cccc(C#N)c4)[C@H]3C2)n1C.Cl.Cl [Example 11, 3-[(3aR,6aR or 3aS,6aS)-5-(3-{[4-methyl-5-(4-methyl-1,3-oxazol-5-yl)-4H-1,2,4-triazol-3-yl]sulfanyl}propyl)-octahydropyrrolo[2,3-c]pyrrol-1-yl]benzonitrile dihydrochloride]
D3 pKi: 8.23

Cc1ncoc1-c1nnc(SCCCN2C[C@@H]3CCN(c4ccc(C(F)(F)F)cc4F)[C@@H]3C2)n1C.Cl.Cl [Example 20, 3-({3-[(3aS,6aS)-1-[2-fluoro-4-(trifluoromethyl)phenyl]-octahydropyrrolo[2,3-c]pyrrol-5-yl]propyl}sulfanyl)-4-methyl-5-(4-methyl-1,3-oxazol-5-yl)-4H-1,2,4-triazole]
D3 pKi: 8.34

Cc1ncoc1-c1nnc(SCCCN2CC3CCN(c4ccccc4OC(F)(F)F)C3C2)n1C (centres unmarked) [Example 25, 4-methyl-3-(4-methyl-1,3-oxazol-5-yl)-5-[(3-{1-[2-(trifluoromethoxy)phenyl]-octahydropyrrolo[3,4-b]pyrrol-5-yl}propyl)sulfanyl]-4H-1,2,4-triazole]
D3 pKi: 8.97

Cn1c(SCCCN2CC3CCN(c4cnc(C(F)(F)F)cn4)C3C2)nnc1C1CCOCC1 (centres unmarked) [Example 49, 2-[5-(3-{[4-methyl-5-(oxan-4-yl)-4H-1,2,4-triazol-3-yl]sulfanyl}propyl)-octahydropyrrolo[2,3-c]pyrrol-1-yl]-5-(trifluoromethyl)pyrazine]
D3 pKi: 7.06

Cn1c(SCCCN2CC3CCN(c4ccc(C(F)(F)F)nc4)C3C2)nnc1C1CCOCC1 (centres unmarked) [Example 50, 5-[5-(3-{[4-methyl-5-(oxan-4-yl)-4H-1,2,4-triazol-3-yl]sulfanyl}propyl)-octahydropyrrolo[3,4-b]pyrrol-1-yl]-2-(trifluoromethyl)pyridine]
D3 pKi: 7.28

Cn1c(SCCCN2CC3CCN(c4cccnc4)C3C2)nnc1C1CCCCC1 (centres unmarked) [Example 66, 3-(5-{3-[(5-cyclohexyl-4-methyl-4H-1,2,4-triazol-3-yl)sulfanyl]propyl}-octahydropyrrolo[2,3-c]pyrrol-1-yl)pyridine]
D3 pKi: 7.94

Cn1c(SCCCN2CC3CCN(c4ccc(C(F)(F)F)cc4)C3C2)nnc1N1CCOCC1 (centres unmarked) [Example 81, 4-{4-methyl-5-[(3-{1-[4-(trifluoromethyl)phenyl]-octahydropyrrolo[3,4-b]pyrrol-5-yl}propyl)sulfanyl]-4H-1,2,4-triazol-3-yl}morpholine]
D3 pKi: 8.40

Cn1c(SCCCN2CC3CCN(c4ccc(C(F)(F)F)cc4)C3C2)nnc1-c1ccnnc1 (centres unmarked) [Example 86, 4-{4-methyl-5-[(3-{1-[4-(trifluoromethyl)phenyl]-octahydropyrrolo[3,4-b]pyrrol-5-yl}propyl)sulfanyl]-4H-1,2,4-triazol-3-yl}pyridazine]
D3 pKi: 7.91

Cn1c(SCCCN2CC3CCN(c4cccc(C#N)c4)C3C2)nnc1-c1cnccn1 (centres unmarked) [Example 94, 3-[5-(3-{[4-methyl-5-(pyrazin-2-yl)-4H-1,2,4-triazol-3-yl]sulfanyl}propyl)-octahydropyrrolo[3,4-b]pyrrol-1-yl]benzonitrile]
D3 pKi: 8.68

Cn1c(SCCCN2CC3CCN(c4ccc(F)cc4)C3C2)nnc1-c1cnccn1 (centres unmarked) [Example 95, 2-[5-({3-[1-(4-fluorophenyl)-octahydropyrrolo[3,4-b]pyrrol-5-yl]propyl}sulfanyl)-4-methyl-4H-1,2,4-triazol-3-yl]pyrazine]
D3 pKi: 8.68

Cn1c(SCCCN2CC3CCN(c4cccc(F)c4)C3C2)nnc1-c1cnccn1 (centres unmarked) [Example 100, 2-[5-({3-[1-(3-fluorophenyl)-octahydropyrrolo[3,4-b]pyrrol-5-yl]propyl}sulfanyl)-4-methyl-4H-1,2,4-triazol-3-yl]pyrazine]
D3 pKi: 8.34

Cc1ccc(N2CCC3CN(CCCSc4nnc(-c5cnccn5)n4C)CC32)cc1 (centres unmarked) [Example 108, 2-[4-methyl-5-({3-[1-(4-methylphenyl)-octahydropyrrolo[3,4-b]pyrrol-5-yl]propyl}sulfanyl)-4H-1,2,4-triazol-3-yl]pyrazine]
D3 pKi: 8.12

Cc1cccc(N2CCC3CN(CCCSc4nnc(-c5cnccn5)n4C)CC32)c1 (centres unmarked) [Example 111, 2-[4-methyl-5-({3-[1-(3-methylphenyl)-octahydropyrrolo[3,4-b]pyrrol-5-yl]propyl}sulfanyl)-4H-1,2,4-triazol-3-yl]pyrazine]
D3 pKi: 8.39

COc1ccccc1N1CCC2CN(CCCSc3nnc(-c4cnccn4)n3C)CC21 (centres unmarked) [Example 112, 2-[5-({3-[1-(2-methoxyphenyl)-octahydropyrrolo[3,4-b]pyrrol-5-yl]propyl}sulfanyl)-4-methyl-4H-1,2,4-triazol-3-yl]pyrazine]
D3 pKi: 7.78

Cn1c(SCCCN2CC3CCN(c4ccc(F)cc4)C3C2)nnc1-c1ccncn1 (centres unmarked) [Example 139, 4-[5-({3-[1-(4-fluorophenyl)-octahydropyrrolo[3,4-b]pyrrol-5-yl]propyl}sulfanyl)-4-methyl-4H-1,2,4-triazol-3-yl]pyrimidine]
D3 pKi: 8.83

CC(=O)N1CCC(c2nnc(SCCCN3CC4CCN(c5ccc(C(F)(F)F)cc5)C4C3)n2C)CC1 (centres unmarked) [Example 140, 1-(4-{4-methyl-5-[(3-{1-[4-(trifluoromethyl)phenyl]-octahydropyrrolo[3,4-b]pyrrol-5-yl}propyl)sulfanyl]-4H-1,2,4-triazol-3-yl}piperidin-1-yl)ethan-1-one]
D3 pKi: 7.81

Cn1c(OCCCN2CC3CCN(c4ccc(C(F)(F)F)cc4)C3C2)nnc1C1CCOCC1 (centres unmarked) [Example 212, 4-methyl-3-(oxan-4-yl)-5-(3-{1-[4-(trifluoromethyl)phenyl]-octahydro-pyrrolo[3,4-b]pyrrol-5-yl}propoxy)-4H-1,2,4-triazole]
D3 pKi: 7.80

Cn1c(SCCCN2CC3CCN(c4ccc(C(F)(F)F)cc4)C3C2)nnc1C1CCC(O)CC1 (centres unmarked) [Example 218, 4-{4-methyl-5-[(3-{1-[4-(trifluoromethyl)phenyl]-octahydropyrrolo[2,3-c]pyrrol-5-yl}propyl)sulfanyl]-4H-1,2,4-triazol-3-yl}cyclohexan-1-ol]
D3 pKi: 8.9

Cc1ncoc1-c1nnc(SCCCN2CC3CN(c4ccc(C(F)(F)F)cc4)C3C2)n1C (centres unmarked) [Example 228, 3-(3-{[4-methyl-5-(4-methyl-1,3-oxazol-5-yl)-4H-1,2,4-triazol-3-yl]sulfanyl}propyl)-6-[4-(trifluoromethyl)phenyl]-3,6-diazabicyclo[3.2.0]heptane]
D3 pKi: 7.43

Cc1ncoc1-c1nnc(SCCCN2CC3CCCN(c4ccc(C(F)(F)F)cc4)C3C2)n1C (centres unmarked) [Example 231, 4-methyl-3-(4-methyl-1,3-oxazol-5-yl)-5-[(3-{1-[4-(trifluoromethyl)phenyl]-octahydro-1H-pyrrolo[3,4-b]pyridin-6-yl}propyl)sulfanyl]-4H-1,2,4-triazole]
D3 pKi: 7.94

Cc1ncoc1-c1nnc(SCCCN2CCC3CCN(c4ccc(C(F)(F)F)cc4)C3C2)n1C (centres unmarked) [Example 241, 4-methyl-3-(4-methyl-1,3-oxazol-5-yl)-5-[(3-{1-[4-(trifluoromethyl)phenyl]-octahydro-1H-pyrrolo[2,3-c]pyridin-6-yl}propyl)sulfanyl]-4H-1,2,4-triazole]
D3 pKi: 7.01
